# Inconclusive means that the source gave no clear call. Such entries were picked first, then a sample of the others. For part of these data: No potency is given beside an inconclusive call; the fits are too rough. Calls of active or inactive are those of the source. Unless noted, the call rests on the fitted dose curve; in most records, active means well fitted curve in the direction sought with a large enough effect in the repeat runs; inconclusive means weak or mixed curves; inactive means no such curve, though single readings can be large; an effect the other way counts as inactive or inconclusive.
# What was measured:
# [1] = A CellTox Green Cytotoxicity Assay to monitor cytotoxicity in HepG2 cells - 8 hour (AID 1224890); further: on the % scale 0 is the no-effect control and ±100 the full control effect; nearly all actives have a fitted effect of over 45% in size
# Method in brief: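 Measurements at 0, 8, 16, 24, 32 and 40 h of treatment captured CellTox Green fluorescence in HepG2 cells that had been co-plated with reagent and preincubated 5 h at 37 C/5% CO2.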
# [2] = qHTS assay to identify small molecule agonists of the sonic hedgehog signaling (Shh) pathway - cell viability counter screen (AID 1259366); further: nearly all actives have a fitted effect of over 50% in size; further: potency means the concentration at half of the fitted maximal effect
# Method in brief: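 Viability measured fluorometrically (CellTiter-Fluor, 1hr, 37C) in 3T3 Gli1-Luc reporter cells after 23hr compound exposure within a 24hr incubation at 37C/5% CO2.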
# [3] = qHTS assay to identify small molecule antagonists of the estrogen receptor alpha (ER-alpha) signaling pathway using the BG1 cell line in the presence of 0.1 nM 17-beta-estradiol - cell viability counter screen (AID 1259241); further: on the % scale 0 is the no-effect control and ±100 the full control effect; nearly all actives have a fitted effect of over 40% in size
# Method in brief: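 The cell line endogenously expresses full-length ER-alpha and carries four EREs driving luciferase. Cells are cultured 5 days hormone-free, treated 22 hr with compounds and 0.1 nM estradiol, then viability is read by fluorescence.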
# [4] = molecular target: Androgen receptor (Homo sapiens) (UniProt P10275); experiment: qHTS assay to identify small molecule antagonists of the androgen receptor (AR) signaling pathway using the MDA cell line in the presence of 0.5 nM R1881 (AID 1259243); further: nearly all actives have a fitted effect of over 50% in size; further: potency means the concentration at half of the fitted maximal effect
# Method in brief: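 With R1881 held at 0.5 nM (final), compound effects on MMTV-luciferase expression in MDA-kb2 cells were scored by luminescence after a 16 hr, 37C incubation.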
# [5] = qHTS assay to identify small molecule antagonists of the androgen receptor (AR) signaling pathway using the MDA cell line in the presence of 0.5 nM R1881 - cell viability counter screen (AID 1259242); further: nearly all actives have a fitted effect of over 45% in size; further: potency means the concentration at half of the fitted maximal effect
# Method in brief: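 Concentration-response screen of compounds for toxicity in MDA-kb2 reporter cells: 16 hr at 37C with 0.5 nM R1881, endpoint live-cell protease fluorescence measured in the reporter wells.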
# [6] = molecular target: Estrogen receptor (Homo sapiens) (UniProt P03372); experiment: qHTS assay to identify small molecule antagonists of the estrogen receptor alpha (ER-alpha) signaling pathway using the BG1 cell line in the presence of 0.1 nM 17-beta-estradiol (AID 1259244); further: nearly all actives have a fitted effect of over 50% in size; further: potency means the concentration at half of the fitted maximal effect; on activity change, negative = inhibition: on the % scale 0 is the no-effect control and ±100 the full control effect
# Method in brief: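 Compounds were tested against 0.1 nM (final) 17beta-estradiol in VM7Luc4E2 cells, which express full-length ER-alpha and an ERE-luciferase reporter; luminescence was recorded following 22 h exposure.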
# [7] = qHTS assay to identify small molecule phospholipidosis (PLD) inducers (AID 1259344; active means well fitted curve in the direction sought with a large enough effect; inconclusive means small, poorly fitted or top-dose-only effect, or another doubt; inactive means no such curve, though single readings can be large; an effect the other way counts as inactive or inconclusive; further: potency means the concentration at half of the fitted maximal effect)
# Method in brief: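 Phospholipid accumulation was scored by imaging: fixed, Hoechst-counterstained HepG2 cells stained with LipidTOX Red after 24 h compound exposure at 37 C. Read-outs were pit count and pit intensity per well or per cell, with amiodarone and DMSO controls.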
# [8] = qHTS assay to identify small molecule antagonists of the sonic hedgehog signaling (Shh) pathway (AID 1259369; calls by dose curve; further: nearly all actives have a fitted effect of over 45% in size; further: potency means the concentration at half of the fitted maximal effect; on activity change, negative = inhibition: on the % scale 0 is the no-effect control and ±100 the full control effect)
# Method in brief: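 NIH/3T3 stable Gli1-Luc clone, 2,000 cells/well, 4hr settle; cpd + conditioned medium 24hr; Luc reagent 30min RT; luminescence.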
# [9] = molecular target: Estrogen receptor beta (Homo sapiens) (UniProt Q92731); experiment: qHTS assay to identify small molecule agonists of the estrogen receptor beta (ER-beta) signaling pathway (AID 1259377; active means well fitted activation curve with a large enough effect in the signal ratio in the repeat runs, not every such curve was filed as active; inconclusive means weak or mixed curves, or effect the other way; the % refers to the signal ratio; further: potency means the concentration at half of the fitted maximal effect); details: ER-beta-UAS-bla HEK293T, beta-lactamase FRET ratio, 16 h; activation: at 92.4 µM (top of the series) unless noted
# Method in brief: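 A UAS-controlled beta-lactamase reporter in ER-beta-UAS-bla HEK293T cells reports receptor activation. Compounds act for 16 hr at 37C in 2% charcoal-stripped serum, and a FRET substrate is read by fluorescence after 2 hours.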
# [10] = qHTS assay to identify small molecule antagonists of the sonic hedgehog signaling (Shh) pathway - cell viability counter screen (AID 1259367); further: potency means the concentration at half of the fitted maximal effect; nearly all actives have a fitted effect of over 55% in size
# Method in brief: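 Viability was read by CellTiter-Fluor fluorescence in the same wells, reagent added 23 hr into compound treatment and incubated 1 hr at 37C. The 3T3 Gli1-Luc reporter cells (2,000/well) received conditioned medium after compound and ran 24 hr.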
# Tags describe the fitted curve by direction and shape or compound fluorescence and quenching.
# UniProt P10275, sequence (P10275 whole entry, looked up): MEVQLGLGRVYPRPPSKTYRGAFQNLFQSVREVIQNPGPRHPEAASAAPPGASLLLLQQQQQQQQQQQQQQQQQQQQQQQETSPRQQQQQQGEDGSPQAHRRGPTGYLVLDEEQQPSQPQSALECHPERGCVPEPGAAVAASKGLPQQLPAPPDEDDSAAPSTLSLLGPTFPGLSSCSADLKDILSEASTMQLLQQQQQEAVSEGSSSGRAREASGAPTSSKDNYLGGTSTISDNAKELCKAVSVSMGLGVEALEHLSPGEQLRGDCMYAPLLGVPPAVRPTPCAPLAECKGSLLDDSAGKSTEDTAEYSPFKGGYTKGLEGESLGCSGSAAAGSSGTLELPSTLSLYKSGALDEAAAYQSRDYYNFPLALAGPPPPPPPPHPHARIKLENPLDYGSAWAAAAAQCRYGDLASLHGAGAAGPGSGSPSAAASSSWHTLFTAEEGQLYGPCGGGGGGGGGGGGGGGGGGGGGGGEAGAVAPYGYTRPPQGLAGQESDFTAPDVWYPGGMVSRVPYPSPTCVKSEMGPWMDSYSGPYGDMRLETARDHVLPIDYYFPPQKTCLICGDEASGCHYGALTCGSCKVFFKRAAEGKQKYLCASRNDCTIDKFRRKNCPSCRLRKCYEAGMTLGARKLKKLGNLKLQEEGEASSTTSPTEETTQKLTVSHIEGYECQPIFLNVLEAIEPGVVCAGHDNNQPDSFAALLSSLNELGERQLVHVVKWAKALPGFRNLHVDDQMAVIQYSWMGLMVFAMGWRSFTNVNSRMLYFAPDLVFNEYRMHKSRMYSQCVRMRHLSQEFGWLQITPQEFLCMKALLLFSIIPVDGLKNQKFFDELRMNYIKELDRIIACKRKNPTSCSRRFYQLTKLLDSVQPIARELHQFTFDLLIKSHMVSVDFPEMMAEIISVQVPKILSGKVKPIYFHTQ
# UniProt P03372, sequence (P03372 whole entry, looked up): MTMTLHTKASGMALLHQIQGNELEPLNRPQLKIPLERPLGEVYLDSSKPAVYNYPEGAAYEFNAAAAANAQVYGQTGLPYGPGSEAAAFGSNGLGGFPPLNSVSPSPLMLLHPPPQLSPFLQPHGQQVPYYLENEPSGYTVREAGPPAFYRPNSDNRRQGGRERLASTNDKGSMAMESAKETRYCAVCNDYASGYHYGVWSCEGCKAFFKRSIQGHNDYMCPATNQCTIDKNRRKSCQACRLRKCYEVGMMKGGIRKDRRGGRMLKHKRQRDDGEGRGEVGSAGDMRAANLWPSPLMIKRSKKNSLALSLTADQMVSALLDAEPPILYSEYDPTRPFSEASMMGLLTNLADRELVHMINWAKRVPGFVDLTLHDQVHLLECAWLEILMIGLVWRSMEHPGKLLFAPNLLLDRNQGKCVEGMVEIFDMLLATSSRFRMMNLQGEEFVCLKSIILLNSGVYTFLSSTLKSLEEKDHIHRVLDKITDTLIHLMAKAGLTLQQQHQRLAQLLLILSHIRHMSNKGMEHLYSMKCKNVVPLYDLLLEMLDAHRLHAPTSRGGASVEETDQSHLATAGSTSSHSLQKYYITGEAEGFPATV
# UniProt Q92731, sequence (Q92731 whole entry, looked up): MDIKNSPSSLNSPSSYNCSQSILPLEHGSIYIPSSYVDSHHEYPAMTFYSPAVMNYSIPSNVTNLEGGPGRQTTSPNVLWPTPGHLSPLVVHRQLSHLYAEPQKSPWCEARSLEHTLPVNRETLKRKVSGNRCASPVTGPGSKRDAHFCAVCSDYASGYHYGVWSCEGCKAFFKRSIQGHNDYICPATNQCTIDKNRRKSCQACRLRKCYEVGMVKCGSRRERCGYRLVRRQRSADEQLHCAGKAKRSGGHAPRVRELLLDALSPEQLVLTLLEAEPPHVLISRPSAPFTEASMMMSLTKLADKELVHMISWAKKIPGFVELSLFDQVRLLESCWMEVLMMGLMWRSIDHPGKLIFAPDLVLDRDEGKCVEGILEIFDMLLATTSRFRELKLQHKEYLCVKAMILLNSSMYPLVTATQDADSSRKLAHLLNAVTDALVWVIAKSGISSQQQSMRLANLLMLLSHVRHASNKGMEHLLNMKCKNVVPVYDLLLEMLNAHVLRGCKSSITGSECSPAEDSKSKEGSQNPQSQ
structure (smiles),measurement,setting,value
Cc1ccc(C=O)cc1C,Potency,[1],inactive
same,Potency,[2],inactive
NCCOCCO,Potency,[3],inactive
OC1(c2ccc(Cl)cc2)CCNCC1,Potency,[4],"inconclusive [inhibitor, single point]"
Cc1ccc(OC(=O)CC(C)C)cc1,Potency,[5],inactive
Nc1ccn([C@@H]2O[C@H](CO)[C@@H](O)C2O)c(=O)n1 (stereo partly specified),Potency,[6],"inconclusive [inhibitor, partial curve, poor fit]"
CC(C)(C)NC(N)=O,Potency,[4],inactive
CN(C)c1ccc(O)c2c1C[C@H]1C[C@H]3[C@H](N(C)C)C(=O)C(C(N)=O)=C(O)[C@@]3(O)C(=O)C1=C2O,Potency,[5],"inconclusive [cytotoxic, partial curve, poor fit]"
same,Potency,[7],"inconclusive [activator, single point]"
same,Potency,[2],"inconclusive [cytotoxic, partial curve]"
same,Potency,[8],"inconclusive [inhibitor, single point]"
same,Potency,[9],"inconclusive [falling, full curve]"
CCCCCC[C@@H](O)C/C=C\CCCCCCCC(=O)OC,Potency,[4],inactive
same,Potency,[10],"inconclusive [cytotoxic, single point]"
same,Potency,[8],"inconclusive [inhibitor, partial curve, poor fit]"
CC1=CC[C@@H]2C[C@H]1C2(C)C,"activity change, negative = inhibition",[6],inactive: 11.8% [at 19 µM]
same,Potency,[8],"inconclusive [inhibitor, single point]"
OCCN(CCO)c1cccc(Cl)c1,Potency,[5],inactive
same,Potency,[8],inactive
CC(=O)Oc1cccc2c1C(=O)c1c(OC(C)=O)cc(C(=O)O)cc1C2=O,Potency,[5],inconclusive [cytotoxic]
same,Potency,[4],"inconclusive [inhibitor, single point]"

# Source: PubChem BioAssay (Tox21)
